{"source": "the supplement of paper PMC11417369", "note": "± gives the standard deviation of the averaged measurements. The list shows a part of the results."}
{"tested_on": "PfAP2-G AP2 domain (GST-tagged)", "assay": "gcPBM binding intensity (ln(normalized median fluorescence intensity)); higher = stronger DNA binding", "summary_of_the_method": "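An Agilent 4 × 180k array of primer-extended double-stranded 36-bp intergenic genomic probes, with negative controls, was incubated for 1 h with GST-tagged P. falciparum DNA-binding domains expressed in E. coli. Alexa488 anti-GST antibody detected bound protein, scanned at 488 nm. Binding intensity is the highest Masliner-normalised natural-log median intensity across replicate spots of either probe orientation.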"}
{"sequence": "CATATATATATATATTGTACAAGATTGTTTTTTTAT [XGTACX_site3913]", "gcPBM binding intensity (ln)": "10.6 ± 0.32"}
{"sequence": "ATGATCATAAGACACACACACAAAAAAAAAAAAAAA [CACACA_site6936]", "gcPBM binding intensity (ln)": "10.1 ± 0.52"}
{"sequence": "CTATATACTAAATGCACACTTATATATTTATATATA [CACACA_site2454]", "gcPBM binding intensity (ln)": "10.1 ± 0.21"}
{"sequence": "TATATTTTTTTAATATGTACATATATATATAAAACA [XGTACX_site2171]", "gcPBM binding intensity (ln)": "11.2 ± 0.79"}
{"sequence": "TCTGTGCACGCATGAAGTACAAAAAAGGTTTCCAGT [XGTACX_site5049]", "gcPBM binding intensity (ln)": "11.3 ± 0.71"}
{"sequence": "ATATATATATATATATGTACATATATTTATATTTAT [XGTACX_site6179]", "gcPBM binding intensity (ln)": "11.1 ± 0.56"}
{"sequence": "GAATAATATGGACATACACACATATACATACAGATA [CACACA_site5200]", "gcPBM binding intensity (ln)": "11 ± 0.73"}
{"sequence": "TTTCATTGGTTTATAAAATTATGAGATCTTAAAGAC [CACACA_negctrl_site1484]", "gcPBM binding intensity (ln)": "9.98 ± 0.13"}
{"sequence": "TCTGTAAAGTAATGGACACACAATATATCCATTTAT [CACACA_site1536]", "gcPBM binding intensity (ln)": "10.8 ± 0.46"}
{"sequence": "TTATATATCTATAATACACACATAATAATATATTTA [CACACA_site7423]", "gcPBM binding intensity (ln)": "9.97 ± 0.12"}
{"sequence": "GCTACGTAAAAAATATGTACATATGAAATATTTTGC [XGTACX_site5111]", "gcPBM binding intensity (ln)": "11.2 ± 0.8"}
{"sequence": "ATACATATATAAATACGTACATATATAATTATATAT [XGTACX_site8178]", "gcPBM binding intensity (ln)": "11.6 ± 0.93"}
{"sequence": "AAATGAGAAGAAATACGTACATATAATAAAATAATT [XGTACX_site4439]", "gcPBM binding intensity (ln)": "11.5 ± 0.89"}
{"sequence": "ATGCATAAATTTTGAAGTACAAAAAAAAAAAATAAA [XGTACX_site7282]", "gcPBM binding intensity (ln)": "11.4 ± 0.86"}
{"sequence": "TTTTTTTTTTTTTTGGGTACATAATAATAACAAGTG [XGTACX_site1034]", "gcPBM binding intensity (ln)": "11.3 ± 1"}
{"sequence": "TTTTATTTAACTCATAATTTTTTAAAAAACAATTAT [XGTACX_negctrl_site19]", "gcPBM binding intensity (ln)": "10 ± 0.24"}
{"sequence": "AAAATATAATATAATGCACACATAAACAAAAAAAAA [CACACA_site8161]", "gcPBM binding intensity (ln)": "10.1 ± 0.12"}
{"sequence": "CACATATACTTCTGTGCACACGAATATTTTTCTTCT [CACACA_site1408]", "gcPBM binding intensity (ln)": "10.6 ± 0.35"}
{"sequence": "CATGTAATATTAAACACACACTCATATAACTCAATA [CACACA_site4212]", "gcPBM binding intensity (ln)": "10.03 ± 0.099"}
{"sequence": "TTTCTTATAGATTTTAATCCTCTATCAAAAAAAGAA [GTGCAC_negctrl_site162]", "gcPBM binding intensity (ln)": "9.82 ± 0.26"}
{"sequence": "TTAACATTATATGAAGGTACAGAAAAAAAAAAATTA [XGTACX_site8530]", "gcPBM binding intensity (ln)": "10.9 ± 0.64"}
{"sequence": "CTTATTTAAGAGTATGAACACACATCATACACATAT [CACACA_site9205]", "gcPBM binding intensity (ln)": "10.3 ± 0.23"}
{"sequence": "TTTTTAATATTCTATGCATGCATCGCATATTTGGTT [TGCATGCA_site1004]", "gcPBM binding intensity (ln)": "9.715 ± 0.049"}
{"sequence": "CATACAGTATTATACTGTACCCATACAAAAAAATAT [XGTACX_site6130]", "gcPBM binding intensity (ln)": "11.6 ± 0.83"}
{"sequence": "AAATAAAAAAAATTTGCACACCTTCAAAGTAATATA [CACACA_site1583]", "gcPBM binding intensity (ln)": "9.985 ± 0.035"}
{"sequence": "TCTTTTCAATTATCCTATATTCTTTTATTTTTAATT [GTGCAC_negctrl_site326]", "gcPBM binding intensity (ln)": "9.82 ± 0.16"}
{"sequence": "CATACACCCATACATACACACATACATACACCCATA [CACACA_site5124]", "gcPBM binding intensity (ln)": "10.3 ± 0.28"}
{"sequence": "ATAAAGGAATTTTATACACACAACATATAAATATAT [CACACA_site7365]", "gcPBM binding intensity (ln)": "9.995 ± 0.064"}
{"sequence": "AGAGAAAAATATTTGGACAAAAATAATATAATATAT [CACACA_negctrl_site656]", "gcPBM binding intensity (ln)": "10.3 ± 0.25"}
{"sequence": "ATTCGTATGAGCATAACACACAATATCGATATTTCT [CACACA_site4165]", "gcPBM binding intensity (ln)": "10.025 ± 0.007"}
{"sequence": "ATATCTAAATATATTACACACAGATATCTTCCTATA [CACACA_site3701]", "gcPBM binding intensity (ln)": "9.84 ± 0.16"}
{"sequence": "AATTAAAATACAAATGTATGCATGTCTCATATAGAA [TGCATGCA_site822]", "gcPBM binding intensity (ln)": "9.79 ± 0.085"}
{"sequence": "TTACGAATTACATATTGTACATATGCACAATTTTAA [XGTACX_site6802]", "gcPBM binding intensity (ln)": "10.9 ± 0.52"}
{"sequence": "TCCTATAATAACGTCACACATTAAATTTAATAAATT [CACACA_site4506]", "gcPBM binding intensity (ln)": "10.3 ± 0.24"}
{"sequence": "AAAAAAAAAAAAAAAACACACATATATCTATAATAT [CACACA_site6665]", "gcPBM binding intensity (ln)": "10.2 ± 0.26"}
{"sequence": "TATACAAAATATTTTACACACACATATATATACATA [CACACA_site2616]", "gcPBM binding intensity (ln)": "10.01 ± 0.057"}
{"sequence": "CATTATTTATTTTAATGTACTTATTTTTAAATTGGT [XGTACX_site8038]", "gcPBM binding intensity (ln)": "11.5 ± 0.96"}
{"sequence": "AGTGCATACATGAATTGTACTTTAAAATAAATTCTA [XGTACX_site8156]", "gcPBM binding intensity (ln)": "11 ± 0.64"}
{"sequence": "ATAAAACAACAAAGAAAATGAAAAAGTAAAAACATA [CACACA_negctrl_site596]", "gcPBM binding intensity (ln)": 9.98}
{"sequence": "TATTTATAAAAAGATTGTACATTTTTTATTATTGTA [XGTACX_site6016]", "gcPBM binding intensity (ln)": "11 ± 0.54"}
{"sequence": "GTTCATTCATTTTAATGTACAAATTTAACTTTTTCT [XGTACX_site680]", "gcPBM binding intensity (ln)": "10.7 ± 0.45"}
{"sequence": "TATAAATATAAATACACACACATATAGATTATAGAT [CACACA_site6429]", "gcPBM binding intensity (ln)": "10.12 ± 0.092"}
{"sequence": "TCTAATAATATATACACACACATATATATTTATATA [CACACA_site2032]", "gcPBM binding intensity (ln)": "9.815 ± 0.064"}
{"sequence": "TGCTACATTCTATGTACACACATATACATATATATA [CACACA_site893]", "gcPBM binding intensity (ln)": "11.2 ± 0.83"}
{"sequence": "TATATCTGTAAATGCACACATATGTGGATATACTTA [CACACA_site5013]", "gcPBM binding intensity (ln)": 10.1}
{"sequence": "AGAAATTATAAATACCTACACACTTATCAAAATAAA [CACACA_site2264]", "gcPBM binding intensity (ln)": "9.98 ± 0.13"}
{"sequence": "TAAGACATGATATATACACACCTTGTTTTAATTTTC [CACACA_site5282]", "gcPBM binding intensity (ln)": "9.915 ± 0.064"}
{"sequence": "GATAAAGTAAAAATATGTACATATATATTTTAAGTT [XGTACX_site6439]", "gcPBM binding intensity (ln)": "11.4 ± 0.78"}
{"sequence": "TTCATATTCGATAAAGTGCATTAATTTTATTTATCA", "gcPBM binding intensity (ln)": "9.92 ± 0.16"}
{"sequence": "TCCAATTGTTCTAGTGTGCACATAAATAAATCTCAT", "gcPBM binding intensity (ln)": "10.7 ± 0.49"}
{"sequence": "AATACTTTTTTCTGTACACACTTGATTTACTATAAT [CACACA_site5544]", "gcPBM binding intensity (ln)": "11.6 ± 0.83"}
{"sequence": "ATAAATAAAAAAGAAAGAAAGAAAGAAACAAACAAA [CACACA_negctrl_site1198]", "gcPBM binding intensity (ln)": "10.1 ± 0.24"}
{"sequence": "AAGAGTTAAAAAAATACACACATATAGATTTTTTTA [CACACA_site7018]", "gcPBM binding intensity (ln)": "9.805 ± 0.049"}
{"sequence": "AAAAATATTAAAAAAGGTACACAGCATATCTCTTTT [XGTACX_site65]", "gcPBM binding intensity (ln)": "11.2 ± 0.88"}
{"sequence": "TATTAATGCAAATGTTATATGTGCATACATAAATGT [CACACA_negctrl_site790]", "gcPBM binding intensity (ln)": "9.835 ± 0.092"}
{"sequence": "TATTACATACATATCTGTACATATATTAATGCACAA [XGTACX_site3315]", "gcPBM binding intensity (ln)": "11.1 ± 0.71"}
{"sequence": "TAAAAAAAAACTCATGCACACAATATTATGAAAAAG [CACACA_site665]", "gcPBM binding intensity (ln)": "10.08 ± 0.042"}
